The text below walks through data of PubChem BioAssay AID463173 (ICCB-Longwood Screening Facility, Harvard Medical School, 2010).

In all, about 52,000 compounds went through this assay and about 1,700 (3.3%) were called active. Cut-off read from the data, not from the text of the source: active = survival mostly below about 52% (no sharp cut-off); inactive = mostly above about 56%. The list shows a part of the results.

In the assay the test system is Wild type. Briefly: growth inhibition of S. aureus wild type versus tarO mutant, primary screen, teichoic acid synthesis inhibitors, RN4220, OD600 (AID 463173). The conditions noted are these: S. aureus RN4220 wild type/DeltatarO growth, OD600, 18 h, active compounds read low, screened at 18.75 µg/mL (by protocol).
As for `CN(C)S(=O)(=O)c1ccc2c(c1)N(CC(=O)N1CCC(C(N)=O)CC1)CCS2`, the survival is inactive: 75%. Take `Cn1c(=O)c2c(-c3ccccc3)n3c(c2n(C)c1=O)C(c1cccc([N+](=O)[O-])c1)Nc1ccccc1-3` (centres undefined): the survival is inactive: 31%. With `Cc1ccc(NC(=O)C2CCCN(c3nc4ccccc4s3)C2)c(C)c1` (centres undefined), the survival was inactive: 86%. As for `CCc1ccc2[nH]c(=O)c(C(c3nnnn3C(C)(C)C)N3CCCCC3)cc2c1` (centres undefined), the survival is inactive: 93%.

With `COc1ccc(C(=O)N2CCN(CCc3ccccn3)CC2)cc1`, the survival was inactive: 113%. Turning to `Cc1cccc(C)c1NC(=O)Cn1c(=O)n(CCC(=O)NCc2ccc3c(c2)OCO3)c(=O)c2sccc21`, the survival is inactive: 89%. `COc1ccc(-c2cc(C(F)(F)F)n3nc(C(=O)Nc4ccc(Cl)cc4C(F)(F)F)cc3n2)cc1OC`: the survival was inactive: 68%. Then `COc1ccccc1N1CCN(C(=O)c2ccco2)CC1`, with inactive: 108%. For `O=C(Nc1c[nH]c(=O)[nH]c1=O)c1ccco1`, the survival was inactive: 106%. As for `Nc1ccc(-c2nc3c(Cl)cccc3[nH]2)cc1`, the survival was inactive: 125%. As to `Cc1oc(-c2ccccc2)nc1Cn1c(=O)cc(-c2ccccc2)c2c(C)nn(C)c21`, the survival is inactive: 76%. The result for `CCN(C(=O)Cn1cnc2c1c(=O)n(C)c(=O)n2C)c1ccccc1C` reads inactive: 73%; that for `Cc1ccc(NC(=O)c2cnc(SCC(=O)N3CCCc4ccccc43)n(C)c2=O)cc1C`, inactive: 77%. Take `CC(C)CN(CC(C)C)c1nnc(NC(=O)Nc2cccc(C(F)(F)F)c2)s1`: the survival is inactive: 97%.

As for `CCOc1ccc(CNC(=O)c2ccc(Sc3ccc(C)cc3)c(N)c2)cc1OC`, the survival is inactive: 119%. The result for `COc1ccc(-c2cc(C(=O)Nc3c(C(=O)c4ccc(C)c(F)c4)oc4ccccc34)no2)cc1` reads inactive: 86%. For the compound `Cc1ccc2nc(Cl)c3cc(C(=O)N4CCCC(C)C4)sc3c2c1` (centres undefined), the survival was active: -2%. For `CCn1c(=O)c2cc(C(=O)NCCc3ccc(OC)c(OC)c3)sc2c2ccccc21`, the survival was inactive: 82%. On to `COc1ccc(OCC(=O)Nc2ccc3c(c2)N(C)C(=O)c2ccccc2S3)cc1`, for which the survival is inactive: 75%. The result for `CN(C)c1ccc(/C=N/NC(=O)c2ccccc2)cc1` reads inactive: 99%.

As for `O=C(O)CN1C(=O)/C(=c2\sc3nc4ccccc4n3c2=O)c2ccccc21`, the survival was inactive: 104%. As to `COc1ccc(C(C)=O)cc1CSc1nc(NCc2ccc(Cl)cc2)c2ccccc2n1`, the survival was active: 0%.

With `COC(=O)Cn1c(SCCOc2ccccc2Cl)nc2ccccc21`, the survival is inactive: 81%. As for `COC(=O)CSc1nnc(-c2cccc(O)c2)o1`, the survival is inactive: 105%. The result for `O=C(CCS(=O)(=O)c1nc(-c2ccc3c(c2)OCO3)cc(C(F)(F)F)n1)Nc1ccccc1C(F)(F)F` reads inactive: 96%; that for `CCc1ccccc1NC(=O)c1cc(S(=O)(=O)N2CCC(C)CC2)cn1C`, inactive: 22%. On to `CN(C)S(=O)(=O)c1ccc2c(c1)oc(=O)n2C`, for which the survival was inactive: 121%. Then `CC(C)OC(=O)c1ccc(N)cc1`, with inactive: 98%. `CCOC(=O)c1cc(-c2ccc(C)cc2)n(CC(=O)Nc2cc(C)ccc2C)c1C`: the survival was inactive: 99%.

`COc1ccc(-c2cc(C(F)(F)F)n3nc(C(=O)Nc4cccc(Cl)c4Cl)cc3n2)cc1OC`: the survival was inactive: 128%. As to `CC1=C(C(=O)Nc2ccc(C)cc2C)C(c2cc(Br)ccc2F)n2ncc(C(=O)Nc3ccc(C)cc3)c2N1` (centres undefined), the survival is inactive: 72%.

Turning to `COc1ccc(OC)c(CNC(=O)c2cc3ccc4cccnc4c3[nH]2)c1`, the survival is inactive: 118%. Consider `Cc1nn2c(=O)cc(COC(=O)c3ccc(NC(=O)COc4ccc(Cl)cc4)cc3)nc2s1`, for which the survival was inactive: 153%.

Turning to `Cc1ccccc1Nc1c(-c2c[nH]c3ccccc23)nc2ccccn12`, the survival is inactive: 83%. On to `CCn1nnc2cc(C(=O)Nc3ccc(C)cc3Br)ccc21`, for which the survival was inactive: 133%. Then `O=c1c(Cl)c(N2CCCCC2)cnn1C12CC3CC(CC(C3)C1)C2`, with inactive: 114%. Then `CC1CCN(S(=O)(=O)c2ccc3nc(NCc4ccc(F)cc4)ccc3c2)CC1`, with inactive: 71%; and `O=c1c2oc3ccccc3c2n(Cc2ccccc2)c(=O)n1Cc1ccco1`, with inactive: 120%; and `COc1ccc(C)cc1NC(=O)C(=O)NCCc1csc2nc(-c3ccccc3F)nn12`, with inactive: 71%. The result for `CCOc1ccc(CCNc2ncnc3onc(-c4ccc(Cl)cc4)c23)cc1` reads inactive: 88%; that for `O=C(Cn1nnc2sc(-c3ccccc3)cc2c1=O)Nc1cccc(C(F)(F)F)c1`, inactive: 78%. Regarding `CC(C)(C)OC(=O)N1CCC(c2nnc(SCc3ccccc3F)o2)CC1`, the survival is inactive: 73%. As to `COc1ccc(-c2csc(N(CC(C)C)C(=O)c3cccs3)n2)cc1`, the survival was inactive: 110%. Consider `Cc1cccc(-c2nc3scc(CCNS(=O)(=O)c4ccc(F)cc4C)n3n2)c1`, for which the survival was inactive: 87%. For `Cc1ccc(NC(=O)c2cc(S(=O)(=O)NCCC3=CCCCC3)ccc2F)cc1C`, the survival was active: -3%. With `CCc1nnc(NC(=O)c2ccc(S(=O)(=O)N3CCCCC3C)cc2)s1` (centres undefined), the survival was inactive: 103%. With `CCc1ccccc1NC(=O)CN(c1ccc(OC)cc1)S(=O)(=O)c1c(C)n[nH]c1C`, the survival is inactive: 84%. On to `Cc1c(NC(=O)c2cc(-c3ccc(Br)cc3)on2)c(=O)n(-c2ccccc2)n1C`, for which the survival is inactive: 79%. With `COc1ccc(Nc2sc(C(=O)c3ccccc3)c(N)c2C(=O)Nc2cc(C)ccc2C)c(OC)c1`, the survival is inactive: 69%.

Consider `Cc1ccn2c(c1)nc(=O)c1cc(S(=O)(=O)N3CCCCC3)c(Cl)cc12`, for which the survival was inactive: 75%. For the compound `CCc1ccc(NC(=O)c2sc3nc(C)c(C(=O)Nc4ccc(C)cc4C)c(-c4ccco4)c3c2N)cc1`, the survival is inactive: 88%. Then `Cc1oc(-c2ccccc2)nc1CNC(=O)NC1CCCCC1`, with inactive: 72%; and `CCOC(=O)c1c(NC(=O)/C=C/c2ccc(OCC)c(OC)c2)sc2c1CCC2`, with inactive: 88%.

`COc1cccc(CNC(=O)CCCN2C(=O)CSc3c2c(C)nn3-c2ccccc2)c1OC`: the survival was inactive: 124%. As to `Cc1ccc(S(=O)(=O)c2nnn3c2nc(N2CCC(C)CC2)c2cc(Cl)ccc23)cc1C`, the survival is inactive: 83%.

For `CCN1C(=O)c2ccccc2S(=O)c2ccc(C(=O)N3CCN(c4ccccc4)CC3)cc21` (centres undefined), the survival was inactive: 83%.

In the case of `COc1ccccc1C(=O)OCc1cc(=O)n2nc(C3CCCCC3)sc2n1`, the survival was inactive: 99%. Consider `CCOC(=O)/C=C1\NC2(CCCC2)Cc2cc(OC)c(OC)cc21`, for which the survival is inactive: 115%. Take `Cc1cccc(NC(=O)CN2C(=O)c3ccccc3Sc3ncccc32)c1C`: the survival was inactive: 90%.

For `CCn1c(NCc2ccc(OC)c(OC)c2)nc2ccccc21`, the survival is inactive: 127%.

For `O=C(CCCc1ccccc1)NC1CCCC1`, the survival is inactive: 110%.

`COc1ccc(CCNC(=O)CSC2=Nc3ccccc3C3=NC(CCC(=O)NCc4ccccc4)C(=O)N23)cc1OC` (centres undefined): the survival is inactive: 94%.

On to `Cc1noc2ncnc(N3CCCC(C(=O)NC(C)C)C3)c12` (centres undefined), for which the survival is inactive: 78%.

For the compound `Cc1ccc(Cl)cc1N1CCN(CCCNc2ncnc3onc(-c4ccc(Cl)cc4)c23)CC1`, the survival is inactive: 92%. With `CCOc1ccccc1CNC(=O)c1ccc2c(c1)sc1nc(-c3ccccc3)cn12`, the survival is inactive: 78%. `Cc1cccc(CCNC(=O)C2CCN(c3ncnc4c3nc3n4CCCCC3)CC2)c1`: the survival was inactive: 112%. Take `COc1ccc(NC(=O)c2ccc(NC(=O)CCS(=O)(=O)c3cccs3)cc2)cc1OC`: the survival is inactive: 74%.

Regarding `CCOC(=O)c1cc(-c2ccccc2)n(CCC(=O)Nc2cc(OCC)ccc2OCC)c1C`, the survival is inactive: 45%.

For `Cc1cccc2cc(CN(CC3CCCO3)C(=O)CC(C)(C)C)c3nnnn3c12` (centres undefined), the survival is inactive: 120%.

In the case of `CCCCCn1c(CCCNC(=O)c2cccc(C)c2)nc2ccccc21`, the survival was inactive: 50%. For `Cc1c(C)n(Cc2ccccc2)c2ccc(C(=O)NCc3ccc(OC(C)C)cc3)cc12`, the survival was inactive: 115%. In the case of `CCN(CC)CCCNC(=O)C1CCN(S(C)(=O)=O)CC1`, the survival was inactive: 100%.

Consider `O=C(CCCCn1c(=O)c2ccccc2n(CC(=O)Nc2ccccc2)c1=O)NCc1ccccc1Cl`, for which the survival is inactive: 94%. Consider `CCc1nnc2c3ccccc3nc(Nc3ccccc3OC)n12`, for which the survival is inactive: 72%.

For the compound `Cc1cccc(N2CCN(S(=O)(=O)c3ccc4oc(=O)c5ncn(C)c5c4c3)CC2)c1C`, the survival is inactive: 81%.

In the case of `CCOC(=O)c1sc(NC(=O)C(C)Sc2nc(-c3ccccc3)cc(C(F)(F)F)n2)c(C(=O)OC)c1C` (centres undefined), the survival is inactive: 139%. Then `Cc1oc(-c2ccc(C(=O)Nc3cccc(C(F)(F)F)c3)cc2)nc1CSc1ccccc1`, with inactive: 57%; and `COc1ccc(Nc2nc3ccc(Cl)cc3n3nnnc23)cc1OC`, with inactive: 109%; and `COc1cccc(-c2nc3cc(C)ccc3o2)c1`, with inactive: 116%. Regarding `COc1ccc(-c2nc3scc(CCNS(=O)(=O)c4ccc(F)c(C(F)(F)F)c4)n3n2)cc1OC`, the survival is inactive: 79%. In the case of `CCCC(=O)C1=C(c2ccc(C)cc2)N(C(=O)CCC)n2cnnc2S1`, the survival is inactive: 134%. Turning to `O=C(Oc1ccccc1Cl)c1cc(-c2ccc3c(c2)OCCO3)on1`, the survival is active: -7%.

With `CCN1CCN(c2cc(C)c3cc(NC(=O)c4cccc(Cl)c4)ccc3n2)CC1`, the survival was inactive: 57%. For the compound `c1ccc(-c2cc3ccsc3s2)cc1`, the survival was inactive: 111%. In the case of `Cc1ccc(NC(=O)c2cnc(N3CCCCC3)c3ccccc23)cc1Cl`, the survival was inactive: 82%. Then `Cc1ccc(OCCn2cc(C(=O)c3ccco3)c3ccccc32)cc1C`, with inactive: 24%; and `COC(=O)c1scc(-c2ccc(C)cc2)c1S(=O)(=O)Nc1cccc(Cl)c1C`, with inactive: 73%; and `Cc1n[nH]c(C)c1CCc1nc2c3ccccc3nc(SCC(=O)Nc3ccc(F)cc3)n2n1`, with inactive: 115%. Regarding `Cc1ccc(CNC(=O)Cn2cc(S(=O)(=O)Cc3cccc(Cl)c3)c3ccccc32)cc1`, the survival was inactive: 77%.
